# Test results reported in the supplement of paper PMC3334620.
# In all, about 33,000 sequences were measured (“E-score (-0.5 to 0.5)”: median about -0.053, highest 2% from about 0.37 on). Some of the results follow.
# Biological target: Hap1 (UniProt P0CE41)
# Assay: PBM E-score (8-mer binding enrichment) (E-score (-0.5 to 0.5)); higher = stronger / more preferred TF binding; most listed sequences are background and not binding sites
# Settings: protein concentration: 200 nM; construct: GST-DNA-binding domain
# Protocol: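 Universal 'all 10-mer' protein binding microarrays (Agilent AMADID 015681) probed with GST-tagged S. cerevisiae TFs (full-length or DBD) made by in vitro transcription/translation (PURExpress), about 100-200 nM. Bound TF was detected with fluorescent anti-GST. Each ungapped 8-mer (which stands for itself and its reverse complement) is scored by the PBM enrichment score (E-score), a modified Wilcoxon-Mann-Whitney statistic from -0.5 to +0.5, computed with the Universal PBM Analysis Suite. Scale: above 0.35 generally sequence-specific binding.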
# Chain of UniProt P0CE41 (P0CE41 whole entry): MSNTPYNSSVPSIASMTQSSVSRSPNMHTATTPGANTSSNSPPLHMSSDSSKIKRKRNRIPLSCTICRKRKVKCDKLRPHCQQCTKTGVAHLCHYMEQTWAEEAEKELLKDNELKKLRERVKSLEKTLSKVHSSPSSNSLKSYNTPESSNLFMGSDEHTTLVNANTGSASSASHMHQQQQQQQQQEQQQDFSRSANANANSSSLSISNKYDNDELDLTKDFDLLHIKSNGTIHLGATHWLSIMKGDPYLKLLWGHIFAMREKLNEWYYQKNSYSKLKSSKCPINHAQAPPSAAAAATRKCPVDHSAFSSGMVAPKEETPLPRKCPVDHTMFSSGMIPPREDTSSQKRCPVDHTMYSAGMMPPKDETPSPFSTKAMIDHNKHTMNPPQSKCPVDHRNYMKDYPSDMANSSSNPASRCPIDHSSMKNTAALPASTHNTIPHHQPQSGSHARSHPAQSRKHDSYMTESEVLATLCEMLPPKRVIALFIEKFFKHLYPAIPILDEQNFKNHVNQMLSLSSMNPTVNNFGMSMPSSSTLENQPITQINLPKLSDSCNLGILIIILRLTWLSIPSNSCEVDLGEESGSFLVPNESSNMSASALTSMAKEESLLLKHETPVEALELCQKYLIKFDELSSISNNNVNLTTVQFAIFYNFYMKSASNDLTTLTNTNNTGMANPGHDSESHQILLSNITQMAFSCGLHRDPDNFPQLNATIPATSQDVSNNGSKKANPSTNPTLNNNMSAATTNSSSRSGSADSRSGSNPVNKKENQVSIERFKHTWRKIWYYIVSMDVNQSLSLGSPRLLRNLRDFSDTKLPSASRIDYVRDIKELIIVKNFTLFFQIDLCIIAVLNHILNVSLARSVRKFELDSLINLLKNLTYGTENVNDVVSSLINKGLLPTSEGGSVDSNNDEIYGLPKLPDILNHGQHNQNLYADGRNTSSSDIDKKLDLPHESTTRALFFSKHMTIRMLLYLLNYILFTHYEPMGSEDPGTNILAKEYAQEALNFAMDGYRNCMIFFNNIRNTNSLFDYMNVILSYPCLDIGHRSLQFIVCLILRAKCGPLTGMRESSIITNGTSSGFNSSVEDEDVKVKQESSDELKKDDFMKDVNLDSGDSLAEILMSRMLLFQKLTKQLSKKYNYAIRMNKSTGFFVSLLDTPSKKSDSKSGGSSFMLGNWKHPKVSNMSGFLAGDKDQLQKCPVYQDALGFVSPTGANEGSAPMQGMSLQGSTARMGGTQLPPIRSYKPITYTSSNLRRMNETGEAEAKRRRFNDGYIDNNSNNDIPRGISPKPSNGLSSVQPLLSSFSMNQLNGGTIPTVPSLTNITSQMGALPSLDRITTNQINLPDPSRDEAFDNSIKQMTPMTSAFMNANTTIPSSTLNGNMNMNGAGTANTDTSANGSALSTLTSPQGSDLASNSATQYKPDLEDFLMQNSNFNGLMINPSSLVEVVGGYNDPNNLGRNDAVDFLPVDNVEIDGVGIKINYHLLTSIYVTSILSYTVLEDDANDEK
row,Sequence,PBM E-score
1,CATTATCG,0.0604
2,ATCGGTCA,0.318
3,GGCATCAC,-0.021
4,GGTATCAC,0.0218
5,GTACAGCA,-0.106
6,ATACACAT,-0.215
7,ACAGATAC,0.0656
8,AGGTTTTC,-0.031
9,AGCCTAGG,-0.101
10,ACCTTAAA,-0.0134
11,AATTCGGT,0.188
12,GTCACCTA,-0.339
13,CTGTATAC,-0.27
14,GTCAGTCA,-0.172
15,ACTTAATC,-0.129
16,ACGATTGC,-0.0367
17,CTGCACCC,0.0641
18,ATGACGGC,0.0742
19,CGAGGAAA,0.0529
20,CTATTTTC,0.0335
21,GCGCTGAC,-0.021
22,CATATACA,-0.114
23,CTAGGTAC,-0.22
24,ACCGAGCT,0.294
25,GGATGCCC,-0.0964

row,Sequence,PBM E-score
1,ATGGTCAA,-0.23
2,CATAGTGA,-0.187
3,CGCAGACA,0.0126
4,CATCCCAG,-0.153
5,ATATTCCA,0.0228
6,AAGGTACA,-0.367
7,AAAAGTCA,-0.145
8,CGCTAAAG,0.165
9,ACTTGTGC,-0.0919
10,CAAAGAGA,-0.117
11,AAATCCTC,0.146
12,ATAACTCC,0.4
13,TCGTTGAA,-0.271
14,GCTGGCCC,0.0494
15,CTTTACAC,-0.0794
16,AGATATGC,-0.0775
17,AAGCGTCC,-0.241
18,CAGCAGAG,-0.284
19,AATGCATT,-0.0577
20,ATCCAACG,-0.159
21,GACGGGAC,0.126
22,GAATCCAA,0.0528
23,AAGGAAAC,-0.0226
24,ACCCAGTG,-0.0754
25,ACACACTA,-0.165

row,Sequence,PBM E-score
1,CGGAGAGA,0.333
2,CAGGATGG,-0.14
3,TAGCGATA,0.227
4,AGGCGAAA,-0.142
5,AACCATGA,0.04
6,CAGGTTAC,-0.139
7,ACCGTCGT,0.0494
8,CATCTTCC,0.0503
9,ACATTGGC,-0.123
10,CACCGGAC,0.417
11,CGGGCGAA,0.375
12,GGGCGAAC,0.145
13,GTCGGTTA,0.273
14,AAGCGAAC,-0.0502
15,CGCGCTCA,-0.142
16,ATACGACC,0.0708
17,CTGGGCTA,0.0256
18,CTATTTCA,-0.0144
19,CGCCAGGA,-0.177
20,ACGAGCAG,-0.188
21,AGCGACGG,0.204
22,AAATCATA,-0.0974
23,CGCCAGCG,-0.128
24,TTGTGAAA,-0.219
25,ACATGATC,-0.0374

row,Sequence,PBM E-score
1,AAGGTTTA,-0.217
2,ACATACCC,0.0317
3,GCAAAGGA,0.0254
4,ATCAACTA,-0.115
5,ATATTCCC,0.331
6,GAATTGCC,0.124
7,GACCAACC,-0.0052
8,AAAGCAGA,-0.0809
9,CAAGAGGA,-0.352
10,AAGGGTCA,-0.124
11,ATCTTCTA,-0.0493
12,ACGGAAGC,0.204
13,CACCCTGC,-0.101
14,GCATTCCC,0.125
15,TACCTCAA,-0.171
16,ATTATGCA,-0.13
17,AAAGCATG,-0.24
18,CCGGGAAA,0.338
19,GGGAGGGA,0.0508
20,CATAAATC,0.115
21,GATTTGGA,-0.136
22,GAGTAACA,0.0178
23,AGTGGACC,-0.0549
24,AATGGGGC,-0.188
25,ATGTCCGA,0.463

row,Sequence,PBM E-score
1,CGATTTAA,0.0314
2,CATTAAAC,-0.163
3,CTGTAACC,0.125
4,CAGGGATG,-0.0552
5,GCTCTCCC,-0.09
6,AAAATATT,-0.0249
7,TGCAAACA,-0.391
8,CGAATCGA,0.105
9,ACTAGGCG,-0.0773
10,GTTGTAGA,-0.159
11,CGTTGCTC,0.0464
12,ATCCCGCG,0.299
13,ACGATACC,0.179
14,CGTGTCTC,-0.172
15,AAGCAGAT,-0.037
16,TGCGATAA,0.201
17,CGTACACA,-0.203
18,ATGTCACC,-0.0329
19,ATGTAGAA,-0.0195
20,AAATCGCC,0.205
21,CAATCAAG,-0.163
22,CACAGTTA,-0.268
23,CGAAAAGA,0.214
24,CGTACGCC,0.172
25,GGGAGCTA,-0.0847

row,Sequence,PBM E-score
1,ATAAGGCA,-0.162
2,GAGCGTGA,-0.183
3,CTCGTGGA,-0.057
4,ATGAGTTG,0.0535
5,GAAAGCCA,-0.0997
6,CTGTCACA,-0.244
7,AAAAATTA,-0.029
8,ATGCGTGC,-0.133
9,GAATGTCC,0.159
10,AAGGATCA,-0.206
11,ATGAAGAC,-0.171
12,AACTTTAA,-0.0237
13,TAGCTGGA,-0.307
14,TGAGCTCA,-0.115
15,CATCAACA,0.101
16,CACATGTG,-0.198
17,AGACTGGA,0.0047
18,AATGTCCG,0.443
19,ATGATGTC,-0.00256
20,ACTGAAAT,-0.242
21,CCCTCAGG,-0.142
22,AGTTACTG,0.0112
23,AGAAATGG,-0.123
24,CCTGGCTA,-0.227
25,CACAAGGC,-0.151

row,Sequence,PBM E-score
1,CAGGAGTC,-0.0202
2,AACGTGGC,-0.246
3,ACTCGGGA,0.226
4,CGATCCGC,0.304
5,AGTATTAC,-0.0512
6,GACCTGCC,-0.107
7,CGGTAAAA,0.321
8,CACTAACG,-0.136
9,CCTTCCTC,-0.275
10,GCGTGACC,-0.0276
11,GAATATTC,0.117
12,AAGCCCAA,-0.122
13,CACAGAGA,-0.239
14,CAATCTAG,0.00122
15,CAACCGGA,0.316
16,CGTGTACA,-0.0917
17,CACTTTAA,0.00194
18,CCTAGACG,-0.242
19,CTAATTTA,-0.137
20,CACTGCAG,-0.103
21,AGATTCGC,-0.0351
22,ATACCACG,0.0652
